The campaign covered roughly 270,000 compounds. About 5,800 (2.1%) were called active. This list was built around the results that the source calls inconclusive (neither active nor inactive); the mix of calls is not that of the screen. Calls come from the whole dose curve; as a rule, active = well fitted inhibition curve with a large enough effect; inconclusive = small, poorly fitted or top-dose-only effect; inactive = flat fitted curve, though single readings scatter. Potencies beside an inconclusive call are fits to weak or partial responses and may not hold up.
Biological target: Microtubule-associated protein tau (Homo sapiens) (UniProt P10636)
Test: qHTS for Inhibitors of Tau Fibril Formation, Thioflavin T Binding; note: nearly all actives have a fitted effect of over 55% in size
Settings: recombinant tau K18 P301L (four-repeat tau fragment), heparin-induced fibrillization, ThT fluorescence; series mostly up to 57.4 µM
Summary of the method: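 Recombinant human tau K18 fragment […] carrying P301L, 15 uM unlabeled plus 0.24 uM Alexa 594-labeled, was fibrillized with 20 uM heparin in 100 mM sodium acetate pH 7 for 6 hr at 37 C; 30 uM ThT fluorescence read after 1 hr.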
Potency is the fitted concentration of half-maximal effect; tags give direction and shape of the fitted curve.

Chain of UniProt P10636 (P10636 whole entry, looked up): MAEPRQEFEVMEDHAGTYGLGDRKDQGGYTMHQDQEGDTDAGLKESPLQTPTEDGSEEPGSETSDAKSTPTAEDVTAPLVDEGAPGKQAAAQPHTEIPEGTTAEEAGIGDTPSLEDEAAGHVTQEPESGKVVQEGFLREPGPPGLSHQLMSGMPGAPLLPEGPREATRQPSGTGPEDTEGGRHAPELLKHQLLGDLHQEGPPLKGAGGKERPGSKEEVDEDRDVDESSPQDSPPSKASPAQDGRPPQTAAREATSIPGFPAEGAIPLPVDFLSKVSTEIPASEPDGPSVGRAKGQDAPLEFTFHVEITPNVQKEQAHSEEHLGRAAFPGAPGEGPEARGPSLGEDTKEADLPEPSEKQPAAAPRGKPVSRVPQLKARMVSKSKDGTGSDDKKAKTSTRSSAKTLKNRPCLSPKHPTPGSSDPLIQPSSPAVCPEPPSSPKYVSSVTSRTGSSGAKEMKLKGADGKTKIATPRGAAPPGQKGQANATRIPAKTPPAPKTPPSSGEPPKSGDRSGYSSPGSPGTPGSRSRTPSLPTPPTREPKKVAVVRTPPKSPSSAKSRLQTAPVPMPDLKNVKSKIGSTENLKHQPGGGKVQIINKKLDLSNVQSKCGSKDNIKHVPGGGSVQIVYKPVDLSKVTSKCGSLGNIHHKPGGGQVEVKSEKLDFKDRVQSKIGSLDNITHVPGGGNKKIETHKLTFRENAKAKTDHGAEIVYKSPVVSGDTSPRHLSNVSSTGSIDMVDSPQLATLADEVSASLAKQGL

SMILES	Potency
Cc1cccc(-n2cc(-c3ccccc3)c3c(NC(C)C)ncnc32)c1	inconclusive: 15.8 µM [inhibitor, single point]
O=C1CN(c2nc(-c3cccs3)nc3sc4c(c23)CCCC4)CCN1	inconclusive: 28.2 µM [inhibitor, partial curve, poor fit]
COc1cccc(C2C3=C(N=c4s/c(=C\c5ccc(O)cc5)c(=O)n42)c2ccccc2CC3)c1OC (stereo not given)	inconclusive: 14.1 µM [inhibitor, partial curve, poor fit]
Cc1ccc(NC(=O)CCc2c(C)nc3c(-c4ccccc4)c(C)nn3c2C)c(C)c1	inconclusive: 25.1 µM [inhibitor, single point]
CCOC(=O)C1=C(C)c2ccccc2OC1(C)C(=O)OCC (stereo not given)	inconclusive: 2.82 µM [inhibitor, full curve]
Cc1cc(C2=NNC(=NC3CC3)SC2)c(C)n1Cc1ccco1	inconclusive: 17.8 µM [inhibitor, partial curve]
Cc1ccc(-n2c(-c3ccncc3)n[nH]c2=S)c(C)c1	inactive
COCC(=O)NCCSc1c(C)[nH]c2ccccc12	inactive
COc1ccc2c(c1)CCc1sc(NC(=O)c3ccc(Cl)cc3)nc1-2	active: 11.2 µM
O=C(/C=C/c1ccc(N2CCCCC2)c([N+](=O)[O-])c1)c1ccc(O)cc1	active: 11.2 µM
CNc1ccc(Cl)nn1	inactive
Nc1cc(S(=O)(=O)Nc2ccc(Cl)cc2)ccc1N1CCOCC1	inactive
CCC(=O)Nc1cc(C(C)(C)C)ccc1C(C)=O	inactive
NS(=O)(=O)c1ccc(CCNCC(=O)NC2CC2)cc1	inactive
C=CCNC(=S)N1CCOCC1	inactive
CC(C)c1ccc(NC(=O)c2ccc(F)c(S(=O)(=O)N3CCCC3)c2)cc1	inconclusive: 39.8 µM [activator, single point]
CC(/C=C/c1ccc2c(c1)OCO2)=N/NC(=O)COc1ccc(C)cc1	inconclusive: 0.708 µM [inhibitor, full curve]
O=C(Nc1nc(N2C(=O)c3ccccc3C2=O)n(-c2ccccc2)n1)c1ccc(F)cc1	inactive
O=C(CCCn1c(SCC(=O)c2ccc(O)c(O)c2)nc2ccccc2c1=O)NCC1CCCO1 (stereo not given)	inconclusive: 15.8 µM [inhibitor, partial curve, poor fit]
CC1CCN(C(=O)Cn2cc(SCc3cccc(F)c3)c3ccccc32)CC1	inconclusive: 12.6 µM [inhibitor, partial curve]
Cc1ccc(S(=O)(=O)N(CC(=O)NCCSCc2ccco2)c2ccc(F)cc2)cc1	inconclusive: 22.4 µM [inhibitor, single point]
CC(C)(C)C(=O)Nc1ccccc1N1CCN(C(=O)c2ccc(Cl)cc2)CC1	inactive
Cc1ccc(NC(=O)c2cnn(-c3ccccc3)c2NC(=O)c2ccco2)cc1C	inconclusive: 31.6 µM [inhibitor, single point]
CCC(=O)Oc1oc(-c2ccccc2)nc1C=Nc1ccc(C)cc1	inconclusive: 17.8 µM [inhibitor, partial curve]

SMILES	Potency
CC1CCN(c2nnc(-n3cccc3CNc3cccc(F)c3)s2)CC1	inconclusive: 20 µM [inhibitor, single point]
O=C(N/N=C/c1ccc2c(c1)OCO2)c1ccc2c(c1)OCCO2	inconclusive: 2.82 µM [inhibitor, full curve]
CC(=O)C(=Nc1ccc(Cl)cc1Cl)NNc1cccc(Cl)c1	inconclusive: 15.8 µM [inhibitor, partial curve]
O=C(/C(C=Nc1ccc(Br)cc1)=C(/O)c1ccco1)C(F)(F)F	inconclusive: 15.8 µM [inhibitor, partial curve]
O=C1Nc2ccc(Br)cc2C1=Nc1cccnc1	inconclusive: 28.2 µM [inhibitor, partial curve]
CN1C/C(=C/c2cccnc2)C(=O)/C(=C/c2cccnc2)C1	inconclusive: 14.1 µM [inhibitor, partial curve]
CCC(=O)N1CCN(c2cc(N3CCN(C)CC3)c(F)cc2[N+](=O)[O-])CC1	inactive
CC(C)Cn1c(N)c(C(=O)CSc2nc3ccccc3c(=O)n2CCCN2CCOCC2)c(=O)n(C)c1=O	inconclusive: 39.8 µM [activator, single point]
O[C@H](CN1CCN(c2cccc(Cl)c2)CC1)C(c1ccccc1)c1ccccc1	inconclusive: 17.8 µM [inhibitor, partial curve]
CCc1ccc(-n2c(SCc3cc(=O)n4cc(Br)ccc4n3)nc3[nH]ncc3c2=O)cc1	inconclusive: 44.7 µM [inhibitor, partial curve, poor fit]
COc1ccc(Cl)cc1C(=O)NNC(=S)NC(=O)/C=C/c1ccco1	active: 11.2 µM
CN(CC(=O)N1CCN(c2ncccn2)CC1)S(=O)(=O)c1ccc(Cl)cc1	inconclusive: 35.5 µM [inhibitor, partial curve]
COc1ccc(-c2nc3c4ccccc4ccn3c2CN2CCCCC2)cc1OC	inactive
CCN(CC)S(=O)(=O)c1ccc(N2CCOCC2)c(NC(=O)c2c3c(nc4ccccc24)CCC3)c1	inactive
CC/C(=N\NC(=S)Nc1ccc(OC)cc1)c1ccc(OC(F)F)cc1	inconclusive: 10 µM [inhibitor, partial curve]
Clc1ccccc1/C=C/c1ccnc2ccccc12	inconclusive: 15.8 µM [inhibitor, partial curve]
C=CCN1C(=O)S/C(=C\c2ccc3c(c2)n(C)c(=O)n3C)C1=O	inactive
O=C(c1cccc2ccccc12)N1CCN(c2ccc([N+](=O)[O-])c(NCc3ccco3)c2)CC1	inconclusive: 3.55 µM [inhibitor, full curve]
O=C(Cc1ccc(Cl)cc1)Nc1ccccc1Sc1ccccc1	inactive
CN(C(=O)CSc1nc(O)cc(=O)n1C1CCCC1)c1ccccc1	inconclusive: 15.8 µM [inhibitor, partial curve, poor fit]
Cc1ccc2c(C)c(C(=O)Nc3ccc(S(N)(=O)=O)cc3)oc2c1C	inconclusive: 15.8 µM [activator, partial curve]
COCCN1C=C(C(=O)OC)C(c2cc3c(cc2Br)OCO3)C(C(=O)OC)=C1	inconclusive: 0.0708 µM [inhibitor, full curve, poor fit]
O=C(COc1ccc(F)cc1)c1c(O)cc(O)cc1O	inconclusive: 31.6 µM [inhibitor, single point]
CC(=O)c1ccc(Nc2nc(C)nc3c2oc2ccccc23)cc1	inconclusive: 3.55 µM [inhibitor, partial curve]

SMILES	Potency
CC(=O)O[C@@H]1C(CO[Si](C)(C)C(C)(C)C)=C(Br)C(=O)[C@@H]2O[C@]12C	active: 28.2 µM
CC(C)(C)n1nnnc1C(c1ccncc1)N(Cc1ccccc1)Cc1ccco1 (stereo not given)	inactive
Cc1cc(N2CCN(C)CC2)nc2ccc(NC(=O)Nc3ccccc3Br)cc12	active: 12.6 µM
CCOc1ccc(C2OC34CCCCC3C(C#N)(C#N)C2(C#N)C(=N)O4)cc1OC (stereo not given)	inconclusive: 22.4 µM [inhibitor, partial curve, poor fit]
CCOC(=O)c1cc2c(ccn2C)n1CC(=O)N1CCN(c2ccc(F)cc2)CC1	inactive
Cc1cc(C)n2nc(SCC(=O)Nc3cc(Cl)ccc3C)nc2n1	inactive
COc1cc(/C=C2/CC/C(=C/c3ccc(O)c(OC)c3)C2=O)ccc1O	active: 0.891 µM
CC1=C(C(N)=O)C(c2ccc(C(C)C)cc2)n2nc(SCc3ccccc3)nc2N1 (stereo not given)	inactive
Clc1cccc2c1Sc1ccccc1CC2N1CCNCC1 (stereo not given)	inconclusive: 14.1 µM [inhibitor, partial curve]
COc1ccccc1CNC(=O)CCCCn1c(=O)c2ccccc2n(Cc2c(C)cc(C)cc2C)c1=O	inactive
COc1ccc(N2CCN(C(=O)CCc3c(C)nc4c(-c5ccccc5)c(C)nn4c3C)CC2)cc1	inconclusive: 31.6 µM [inhibitor, single point]
Cc1cc(C)c2c(c1)-c1cc(C)nn1C(c1ccc3c(c1)OCO3)N2 (stereo not given)	inconclusive: 31.6 µM [inhibitor, single point]
COc1ccccc1CNC(=O)CCc1c(C)c2ccc(OC)c(C)c2oc1=O	inconclusive: 3.98 µM [inhibitor, partial curve, poor fit]
COc1ccc2nc(C)cc(SCC(NC(C)=O)C(=O)OC(C)C)c2c1 (stereo not given)	inconclusive: 14.1 µM [inhibitor, partial curve]
O=c1[nH][nH]c(-c2ccccc2)c1C=Nc1ccc(F)cc1F	inactive
O=C(Nc1nc(-c2nc3ccccc3s2)cs1)c1ccc(S(=O)(=O)N2CCOCC2)cc1	inconclusive: 3.98 µM [inhibitor, full curve]
CCNc1nc(Cl)nc(-c2cn(-c3ccccc3)c3ccccc23)n1	inactive
CCOc1ccccc1NC(=O)c1c(NC(=O)CCC(=O)O)sc2c1CCCCC2	inconclusive: 15.8 µM [inhibitor, single point]
COc1ccc2c(c1)cc(CNc1ccc(OC)c(OC)c1)c(=O)n2CC(=O)Nc1ccc(F)cc1	inconclusive: 25.1 µM [inhibitor, partial curve]
NC(=O)c1ccc(NC(=O)CSC2=Nc3ccccc3C3CC=NN23)cc1 (stereo not given)	inconclusive: 12.6 µM [inhibitor, partial curve]
COc1ccc(-c2c(C)nn3c(-c4ccccc4)cc(C)nc23)cc1	inconclusive: 17.8 µM [inhibitor, partial curve]
Cc1ccc(S(=O)(=O)NCC(=O)OCC(=O)c2ccc(Br)s2)cc1	inconclusive: 20 µM [inhibitor, partial curve]

— PubChem BioAssay AID1460 (National Center for Advancing Translational Sciences (NCATS), 2008)
